Data from US20250388696A1 (NAVIGO PROTEINS, published 2025).

T1: hFAP-Fc (human, UniProt Q12884 26-760, limits assumed)
T1 construct: also called Fc-tagged target (FAP)
T1 sequence (looked up): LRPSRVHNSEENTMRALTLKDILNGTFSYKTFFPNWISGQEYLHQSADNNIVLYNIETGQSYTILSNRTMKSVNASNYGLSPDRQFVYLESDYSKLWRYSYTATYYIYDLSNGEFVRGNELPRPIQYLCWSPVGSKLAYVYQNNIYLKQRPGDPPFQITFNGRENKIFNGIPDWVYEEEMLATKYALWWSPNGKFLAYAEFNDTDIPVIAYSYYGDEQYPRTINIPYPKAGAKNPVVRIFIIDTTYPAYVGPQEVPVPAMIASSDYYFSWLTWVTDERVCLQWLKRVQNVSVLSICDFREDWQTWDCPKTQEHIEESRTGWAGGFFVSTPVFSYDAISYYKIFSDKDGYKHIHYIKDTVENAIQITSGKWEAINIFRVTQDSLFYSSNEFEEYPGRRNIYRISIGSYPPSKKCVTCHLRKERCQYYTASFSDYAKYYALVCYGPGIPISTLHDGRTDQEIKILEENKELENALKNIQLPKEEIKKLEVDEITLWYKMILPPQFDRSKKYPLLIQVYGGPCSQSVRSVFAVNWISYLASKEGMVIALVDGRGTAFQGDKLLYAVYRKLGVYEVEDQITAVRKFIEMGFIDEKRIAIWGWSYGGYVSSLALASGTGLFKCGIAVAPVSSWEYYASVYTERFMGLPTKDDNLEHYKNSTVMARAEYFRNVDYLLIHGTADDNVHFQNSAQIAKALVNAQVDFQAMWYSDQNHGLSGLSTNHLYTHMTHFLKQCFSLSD


How the values were obtained:
mouse serum albumin = biological target: T2, mouse serum albumin (mouse, UniProt P07724 25-608); assay: SPR
T2 construct: also called MSA

human serum albumin [1] = biological target: T3, human serum albumin (human, UniProt P02768 25-609); assay: SPR, HSA immobilised on the chip, pH 7.3, 1:1 Langmuir fit
T3 construct: also called HSA
Protocol: (§1) Recombinant protein A, HSA, MSA or target (either ED-B or Her2) was immobilized on a High Capacity Amine sensor chip (Bruker) after NHS/EDC activation with a Sierra SPR-32 system (Bruker). The chip was equilibrated with SPR running buffer (PBS 0.05%, Tween pH 7.3). Injection of ethanolamine after target immobilization was used to block free NHS groups. To determine the binding of fusion proteins to FAP, the Fc-tagged target was injected with 60 or 30 nM to Protein A coupled spots followed by the injection of fusion proteins.
(§2) Binding proteins were applied to the chip in serial dilutions with a flow rate of 30 μl/min. Upon binding, analyte accumulated on the surface increasing the refractive index. This change in the refractive index was measured in real time and plotted as response or resonance units versus time. The association was performed for 120 seconds and the dissociation for 180 seconds. After each run, the chip surface was regenerated with 30 μl regeneration buffer (10 mM glycine pH 2.0 or pH 1.5) and equilibrated with running buffer. Binding studies were carried out using the Sierra SPR-32 system (Bruker); data evaluation was operated via the Sierra Analyser software, provided by the manufacturer, by the use of the Langmuir 1:1 model (RI=0).

hFAP-Fc [2] = biological target: T1, hFAP-Fc; assay: SPR, Fc-tagged FAP captured on immobilised protein A, pH 7.3, 1:1 Langmuir fit
Protocol: as §1, §2

hFAP-Fc [3] = biological target: T1, hFAP-Fc; assay: SPR
human serum albumin [4] = biological target: T3, human serum albumin; assay: SPR, HSA immobilised on the chip, pH 7.3, 1:1 Langmuir fit [continued]
Protocol: as §1, §2

T3 sequence (P02768 25-609 limits assumed): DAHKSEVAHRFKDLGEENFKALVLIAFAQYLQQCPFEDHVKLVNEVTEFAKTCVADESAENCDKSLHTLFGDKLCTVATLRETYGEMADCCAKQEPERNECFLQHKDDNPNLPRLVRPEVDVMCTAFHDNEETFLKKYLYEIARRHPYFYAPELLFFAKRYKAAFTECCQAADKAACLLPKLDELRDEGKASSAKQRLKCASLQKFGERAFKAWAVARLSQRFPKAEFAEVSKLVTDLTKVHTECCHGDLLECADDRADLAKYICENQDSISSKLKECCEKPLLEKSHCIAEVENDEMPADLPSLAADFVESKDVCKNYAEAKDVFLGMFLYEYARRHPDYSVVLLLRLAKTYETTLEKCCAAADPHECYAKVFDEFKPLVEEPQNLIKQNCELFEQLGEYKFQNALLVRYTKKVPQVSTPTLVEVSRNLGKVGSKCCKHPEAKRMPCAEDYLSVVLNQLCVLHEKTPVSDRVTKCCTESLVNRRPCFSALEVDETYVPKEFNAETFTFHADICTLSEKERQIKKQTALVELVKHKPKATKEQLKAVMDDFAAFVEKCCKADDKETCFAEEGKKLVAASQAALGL

Row | Kd (mouse serum albumin) | Kd (human serum albumin [1]) | Binder | further results
1 | 108 nM | – | fusion protein 218462 DOTA Lu (designed binder, Maleimide-DOTA coupled (site not stated), loaded with Lu, also called 206479_(G4S)4_c20) MQIFVKTLTGKTITLEVEPSDTTENVKAKIQDKEGIPPDQQTLAFVGKQLEDGRTLSDYNIQKESTLWLYLTLRAAMRIFVKTHTGKTITLDVEPSDTIENVKAKIQDKEGIPPDQQRLIWAGKQLEDGRTLSDYNIQEWAILHLVLRLRAAGGGGSGGGGSGGGGSGGGGSLAEAKVLALKELDKYGISNYYKNLINNAKTIEGVKALKDEIVAA | –
2 | – | 1.7 nM | 220520 (designed binder, also called 217990__d01__d01) fusion protein: MQIFVKTLTPEWHIIGKTITLEVEPSDTIENVKAKIQDKEGIPPDQQNLAWAGKQLEDGRTLSDYNIQGGSMLMLKLHLRAAGGGGSGGGGSLAEAKVLALKELDKYGISNYYKNLINNAKTVEGVKALKEAIVAAGGGGSGGGGSLAEAKVLALKELDKYGISNYYKNLINNAKTVEGVKALKEAIVAA | Kd (hFAP-Fc [2]): 7.8 nM
3 | < 1 nM | – | fusion protein 220520 DOTA Lu (designed binder, Maleimide-DOTA coupled (site not stated), loaded with Lu) MQIFVKTLTPEWHIIGKTITLEVEPSDTIENVKAKIQDKEGIPPDQQNLAWAGKQLEDGRTLSDYNIQGGSMLMLKLHLRAAGGGGSGGGGSLAEAKVLALKELDKYGISNYYKNLINNAKTVEGVKALKEAIVAAGGGGSGGGGSLAEAKVLALKELDKYGISNYYKNLINNAKTVEGVKALKEAIVAA | Kd (hFAP-Fc [3]): 5.9 nM
4 | – | 9.7 nM | fusion protein of SEQ ID NO: 54 (designed binder, also called 220519) MQIFVKTLTPEWHIIGKTITLEVEPSDTIENVKAKIQDKEGIPPDQQNLAWAGKQLEDGRTLSDYNIQGGSMLMLKLHLRAAGGGGSGGGGSMQIFVKTLTPEWHIIGKTITLEVEPSDTIENVKAKIQDKEGIPPDQQNLAWAGKQLEDGRTLSDYNIQGGSMLMLKLHLRAAGGGGSGGGGSLAEAKVLALKELDKYGISNYYKNLINNAKTVEGVKALKEAIVAAC | Kd (hFAP-Fc [2]): 0.5 nM
5 | 67 nM | – | fusion protein 220519 DOTA Lu (designed binder, Maleimide-DOTA coupled (site not stated), loaded with Lu) MQIFVKTLTPEWHIIGKTITLEVEPSDTIENVKAKIQDKEGIPPDQQNLAWAGKQLEDGRTLSDYNIQGGSMLMLKLHLRAAGGGGSGGGGSMQIFVKTLTPEWHIIGKTITLEVEPSDTIENVKAKIQDKEGIPPDQQNLAWAGKQLEDGRTLSDYNIQGGSMLMLKLHLRAAGGGGSGGGGSLAEAKVLALKELDKYGISNYYKNLINNAKTVEGVKALKEAIVAAC | Kd (hFAP-Fc [3]): < 1 nM
6 | – | 1.1 nM | 218689 (designed binder, order of parts as in the construct name; also called 217832_d01_d01) fusion protein: MQIFVWTRINKLITLEVEPSDTIENVKAKIQDKEGIPPDQQSLYWKGKQLEDGRTLSDYNINIWPNLYLSLRAALAEAKVLALKELDKYGISNYYKNLINNAKTVEGVKALKEAIVAALAEAKVLALKELDKYGISNYYKNLINNAKTVEGVKALKEAIVAA | Kd (hFAP-Fc [2]): 3.9 nM
7 | 38 nM | – | fusion protein 220518 DOTA Lu (designed binder, Maleimide-DOTA coupled (site not stated), loaded with Lu) MQIFVKTLTPEWHIIGKTITLEVEPSDTIENVKAKIQDKEGIPPDQQNLAWAGKQLEDGRTLSDYNIQGGSMLMLKLHLRAAGGGGSGGGGSLAEAKVLALKELDKYGISNYYKNLINNAKTVEGVKALKEAIVAA | Kd (hFAP-Fc [3]): 6 nM

Second part, the binder before the results:

Row | Binder | Kd (mouse serum albumin) | Kd (human serum albumin [1]) | further results
8 | fusion protein 218462 DOTA In (designed binder, Maleimide-DOTA coupled (site not stated), loaded with In, also called 206479_(G4S)4_c20) MQIFVKTLTGKTITLEVEPSDTTENVKAKIQDKEGIPPDQQTLAFVGKQLEDGRTLSDYNIQKESTLWLYLTLRAAMRIFVKTHTGKTITLDVEPSDTIENVKAKIQDKEGIPPDQQRLIWAGKQLEDGRTLSDYNIQEWAILHLVLRLRAAGGGGSGGGGSGGGGSGGGGSLAEAKVLALKELDKYGISNYYKNLINNAKTIEGVKALKDEIVAA | 82 nM | – | –
9 | 220909 (designed binder, order of parts as in the construct name; also called 206479_c47) fusion protein: MQIFVKTLTGKTITLEVEPSDTTENVKAKIQDKEGIPPDQQTLAFVGKQLEDGRTLSDYNIQKESTLWLYLTLRAAMRIFVKTHTGKTITLDVEPSDTIENVKAKIQDKEGIPPDQQRLIWAGKQLEDGRTLSDYNIQEWAILHLVLRLRAALAEAKVLALKELDKYGISNYYKNLINNAKTIEGVEGLKDAILAA | – | – | Kd (human serum albumin [4]): 20.8 nM
10 | 221980 (designed binder, order of parts as in the construct name; also called 206479_c29) fusion protein: MQIFVKTLTGKTITLEVEPSDTTENVKAKIQDKEGIPPDQQTLAFVGKQLEDGRTLSDYNIQKESTLWLYLTLRAAMRIFVKTHTGKTITLDVEPSDTIENVKAKIQDKEGIPPDQQRLIWAGKQLEDGRTLSDYNIQEWAILHLVLRLRAALAEAKVLALKELDKYGISNYYKNLIDKAKTIEGVEALKDAILAA | – | – | Kd (human serum albumin [4]): 1.5 nM
11 | 220902 (designed binder, order of parts as in the construct name; also called 206479_a34) fusion protein: MQIFVKTLTGKTITLEVEPSDTTENVKAKIQDKEGIPPDQQTLAFVGKQLEDGRTLSDYNIQKESTLWLYLTLRAAMRIFVKTHTGKTITLDVEPSDTIENVKAKIQDKEGIPPDQQRLIWAGKQLEDGRTLSDYNIQEWAILHLVLRLRAALAEAKVLAIKELDKAGISNYYFNLINNAKTVEGVKALKAQIVAR | – | 17.6 nM | –
12 | 221873 (designed binder, order of parts as in the construct name; also called 206479_a05) fusion protein: MQIFVKTLTGKTITLEVEPSDTTENVKAKIQDKEGIPPDQQTLAFVGKQLEDGRTLSDYNIQKESTLWLYLTLRAAMRIFVKTHTGKTITLDVEPSDTIENVKAKIQDKEGIPPDQQRLIWAGKQLEDGRTLSDYNIQEWAILHLVLRLRAALAEAKVLAIKELDKAGISDYYFNLINNAKTIEGVKALKAQIVAA | – | 2.9 nM | –
13 | 220883 (designed binder, order of parts as in the construct name; also called 206479_c44) fusion protein: MQIFVKTLTGKTITLEVEPSDTTENVKAKIQDKEGIPPDQQTLAFVGKQLEDGRTLSDYNIQKESTLWLYLTLRAAMRIFVKTHTGKTITLDVEPSDTIENVKAKIQDKEGIPPDQQRLIWAGKQLEDGRTLSDYNIQEWAILHLVLRLRAALAEAKVLALKELDKYGISNYYKNLINRAKTIEGVKALKDEIVAA | – | – | Kd (human serum albumin [4]): 2.8 nM
14 | fusion protein of SEQ ID NO: 47 (designed binder, also called 220521) MQIFVKTLTPEWHIIGKTITLEVEPSDTIENVKAKIQDKEGIPPDQQNLAWAGKQLEDGRTLSDYNIQGGSMLMLKLHLRAAGGGGSGGGGSMQIFVKTLTPEWHIIGKTITLEVEPSDTIENVKAKIQDKEGIPPDQQNLAWAGKQLEDGRTLSDYNIQGGSMLMLKLHLRAAGGGGSGGGGSLAEAKVLALKELDKYGISNYYKNLINNAKTVEGVKALKEAIVAAGGGGSGGGGSLAEAKVLALKELDKYGISNYYKNLINNAKTVEGVKALKEAIVAAC | – | 1.5 nM | Kd (hFAP-Fc [2]): 0.5 nM
15 | fusion protein 220521 DOTA Lu (designed binder, Maleimide-DOTA coupled (site not stated), loaded with Lu) MQIFVKTLTPEWHIIGKTITLEVEPSDTIENVKAKIQDKEGIPPDQQNLAWAGKQLEDGRTLSDYNIQGGSMLMLKLHLRAAGGGGSGGGGSMQIFVKTLTPEWHIIGKTITLEVEPSDTIENVKAKIQDKEGIPPDQQNLAWAGKQLEDGRTLSDYNIQGGSMLMLKLHLRAAGGGGSGGGGSLAEAKVLALKELDKYGISNYYKNLINNAKTVEGVKALKEAIVAAGGGGSGGGGSLAEAKVLALKELDKYGISNYYKNLINNAKTVEGVKALKEAIVAAC | 0.9 nM | – | Kd (hFAP-Fc [3]): < 0.5 nM
16 | fusion protein 220521 DOTA In (designed binder, Maleimide-DOTA coupled (site not stated), loaded with In) MQIFVKTLTPEWHIIGKTITLEVEPSDTIENVKAKIQDKEGIPPDQQNLAWAGKQLEDGRTLSDYNIQGGSMLMLKLHLRAAGGGGSGGGGSMQIFVKTLTPEWHIIGKTITLEVEPSDTIENVKAKIQDKEGIPPDQQNLAWAGKQLEDGRTLSDYNIQGGSMLMLKLHLRAAGGGGSGGGGSLAEAKVLALKELDKYGISNYYKNLINNAKTVEGVKALKEAIVAAGGGGSGGGGSLAEAKVLALKELDKYGISNYYKNLINNAKTVEGVKALKEAIVAAC | 0.9 nM | – | Kd (hFAP-Fc [3]): < 0.5 nM
17 | 220518 (designed binder, also called 217990_d01) fusion protein: MQIFVKTLTPEWHIIGKTITLEVEPSDTIENVKAKIQDKEGIPPDQQNLAWAGKQLEDGRTLSDYNIQGGSMLMLKLHLRAAGGGGSGGGGSLAEAKVLALKELDKYGISNYYKNLINNAKTVEGVKALKEAIVAA | – | 3.9 nM | Kd (hFAP-Fc [2]): 3.7 nM
